# Source: publication PMC4336329 (PLoS ONE, 2015)
# The whole screen tested about 310,000 compounds, of which about 14,000 (4.5%) showed an effect of 50% or more. The effect is printed as a negative number. Some of the results follow.
# Target: human ether-à-go-go-related gene (hERG) potassium channel (human, UniProt Q12809)
# Experiment: primary screen, population patch clamp on CHO cells stably expressing hERG
# 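Further: peak tail current of the secondary pulse compared with the same well before compound.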
# human ether-à-go-go-related gene (hERG) potassium channel, sequence (Q12809 whole entry, looked up): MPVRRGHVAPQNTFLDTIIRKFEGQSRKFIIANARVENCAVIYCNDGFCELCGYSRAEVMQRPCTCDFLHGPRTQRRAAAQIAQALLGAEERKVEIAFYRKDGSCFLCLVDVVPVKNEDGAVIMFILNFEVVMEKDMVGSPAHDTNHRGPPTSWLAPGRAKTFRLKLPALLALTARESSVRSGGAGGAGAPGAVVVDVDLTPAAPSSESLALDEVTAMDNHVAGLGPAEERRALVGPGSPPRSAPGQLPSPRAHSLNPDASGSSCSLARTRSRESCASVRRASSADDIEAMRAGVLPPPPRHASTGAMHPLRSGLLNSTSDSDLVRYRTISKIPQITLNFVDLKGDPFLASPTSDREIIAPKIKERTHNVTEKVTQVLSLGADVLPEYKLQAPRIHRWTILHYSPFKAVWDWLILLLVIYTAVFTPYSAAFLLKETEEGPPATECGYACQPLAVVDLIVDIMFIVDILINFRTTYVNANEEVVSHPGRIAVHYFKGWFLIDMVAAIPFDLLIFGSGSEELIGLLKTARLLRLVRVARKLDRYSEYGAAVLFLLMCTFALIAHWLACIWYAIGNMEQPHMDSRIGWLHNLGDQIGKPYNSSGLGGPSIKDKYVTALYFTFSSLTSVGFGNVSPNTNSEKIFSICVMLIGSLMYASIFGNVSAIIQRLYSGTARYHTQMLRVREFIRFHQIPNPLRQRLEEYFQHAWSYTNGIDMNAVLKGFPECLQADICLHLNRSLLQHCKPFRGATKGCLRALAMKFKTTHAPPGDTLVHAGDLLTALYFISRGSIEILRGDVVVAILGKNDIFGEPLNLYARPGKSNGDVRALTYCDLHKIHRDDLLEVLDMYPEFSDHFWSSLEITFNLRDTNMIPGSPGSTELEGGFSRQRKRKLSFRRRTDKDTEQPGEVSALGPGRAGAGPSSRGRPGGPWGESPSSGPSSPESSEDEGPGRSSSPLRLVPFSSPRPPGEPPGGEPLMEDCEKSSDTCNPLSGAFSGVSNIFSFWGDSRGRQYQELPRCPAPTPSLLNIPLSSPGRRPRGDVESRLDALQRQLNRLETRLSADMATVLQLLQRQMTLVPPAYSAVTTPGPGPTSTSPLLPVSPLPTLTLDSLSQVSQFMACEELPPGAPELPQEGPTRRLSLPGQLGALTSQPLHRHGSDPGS
row,Structure (SMILES),"hERG current change (%, negative = inhibition) at 10uM"
1,Cc1ccc(-n2nnnc2SCC(=O)NCCC2=CCCCC2)c(C)c1,-13.1%
2,O=C1NC(=O)N(c2ccc(Cl)cc2)C(=O)/C1=C/c1coc2ccc(O)cc2c1=O,4.71%
3,CSc1nc2ccccc2n1CC(=O)Nc1ccccc1,0.767%
4,CCCCn1nc(NS(=O)(=O)c2cccc3nonc23)c2cc3cccc(C)c3nc21,23%
5,O=C(NCc1ccccc1)c1nc[nH]c1C(=O)NCc1ccccc1,7.21%
6,COc1ccc(OC)c(/C=C/C(=O)OCC(=O)NCc2cccs2)c1,17.8%
7,Cc1ccc(C)c(NC(=O)C2CCCN(S(=O)(=O)c3c(C)nn(C)c3C)C2)c1 (centres unmarked),11.6%
8,CCOc1ccc(NC(=O)c2cc(F)c(F)cc2Cl)cc1OCC,22.1%
9,CC1CCCN(C(=O)Cn2nnc(-c3ccc(F)cc3)n2)C1 (centres unmarked),-25.5%
10,Cc1ccccc1NS(=O)(=O)c1ccc(OCC(=O)NCC2CCCO2)cc1 (centres unmarked),2.34%
11,CC(C)C(C)(C#N)NC(=O)CSc1nnc(-c2ccncc2)n1Cc1ccccc1 (centres unmarked),1.1%
12,Cc1cccnc1NC(=O)c1ccc(NS(=O)(=O)/C=C/c2ccccc2)cc1,-18.2%
13,C=CCN(N=Nc1cccc([N+](=O)[O-])c1)c1cccc([N+](=O)[O-])c1,13.2%
14,Cc1ccc(C)c(S(=O)(=O)C(C#N)c2nc3ccccc3nc2N2CCOCC2)c1 (centres unmarked),11.6%
15,Cc1c(NC(=O)c2ccc3c(c2)OCO3)cccc1-c1nc2ccccc2o1,-6.02%
16,CC(=O)NC(c1cc(Cl)c2cccnc2c1O)C1CC1 (centres unmarked),6.7%
17,O=C(Cn1nc(-c2ccco2)ccc1=O)Nc1ccc(Br)cc1,2.84%
18,O=C1C(=O)N(Cc2ccco2)C(c2cccs2)/C1=C(\O)c1cccc([N+](=O)[O-])c1 (centres unmarked),4.21%
19,Cc1cc(C(=O)N2CCc3ccccc3C2)on1,10.1%
20,CC(=O)NS(=O)(=O)c1ccc(NS(=O)(=O)c2ccc3ccccc3c2)cc1,0.292%
21,CCOC(=O)C1CCCN(C(=O)c2ccc(Cn3c(=S)[nH]c4cc(C(=O)OC)ccc4c3=O)cc2)C1 (centres unmarked),10.6%
22,O=C(c1ccc2ccccc2n1)N1CCN(c2ccccc2Cl)CC1,-64.8%

row,Structure (SMILES),"hERG current change (%, negative = inhibition) at 10uM"
1,O=C(NNC(=O)c1sccc1-n1cccc1)c1ccc(Cl)cc1,11.9%
2,CS(=O)(=O)O.Cc1ccc(N(CC2=NCCN2)c2cccc(O)c2)cc1,-51.2%
3,COc1ccc(/C=N/NC(=O)CCC(=O)Nc2ccc(F)cc2)c(OC)c1,14.9%
4,CC(C)=CC(O)C/C(C)=C/COc1ccc2ccc(=O)oc2c1 (centres unmarked),-8.79%
5,CC(CCc1ccccc1)NC(=O)c1cccc(F)c1 (centres unmarked),8.59%
6,O=[N+]([O-])c1ccc2nc(-c3ccncc3)[nH]c2c1,-6.32%
7,O=C1CN(C(=O)c2ccc(Br)o2)C(c2ccc(F)cc2)c2cc(F)ccc2N1 (centres unmarked),-28.4%
8,CCOc1ccc2nc(SCC(=O)NC3CCCCC3)[nH]c2c1,-0.262%
9,COc1ccc(-c2oc(=O)n(C)c2-c2ccc(OC)cc2)cc1,-26.2%
10,Cc1nc(N)c(CC(Br)CBr)c(Cl)n1 (centres unmarked),10.3%
11,Cc1sc2c(c1C)c(=O)n(-c1ccccc1)c1nncn21,5.43%
12,CN(C)S(=O)(=O)n1cc(/C=C(\NC(=O)c2ccccc2F)C(=O)N2CCCC2)c2ccccc21,15%
13,COC(CNC(=O)c1coc2nc3ccccc3nc12)OC,1.77%
14,COc1cc2cc[n+](Cc3ccc([N+](=O)[O-])cc3)cc2cc1OC.[Cl-],-30.5%
15,CCn1c(=O)c(C(=O)Nc2ccsc2C(=O)OC)c(O)c2ccccc21,15.3%
16,COc1ccc(-n2c(O)c(C=Nc3c(C)n(C)n(-c4ccccc4)c3=O)c(=O)[nH]c2=O)cc1,3.57%
17,CSC1=NS(=O)(=O)c2c(C)nn(C)c2S1,17.6%
18,O=C(Nc1cnn(Cc2ccc(F)cc2)c1)c1cc(-c2ccco2)on1,-6.05%
19,O=S(=O)(Nc1ncccn1)c1ccc(NC(=S)Nc2ccccc2)cc1,16.5%
20,Cc1nc(Cl)c2c(n1)N(CC(N)=O)C(=O)CO2,13.4%
21,COc1ccccc1NC(=O)/C(=C\c1cccnc1)NC(=O)c1ccc(C)cc1,-71.9%
22,CC1Sc2ccc(C(=O)NCc3cccc(C(F)(F)F)c3)cc2NC1=O (centres unmarked),-4.86%

row,Structure (SMILES),"hERG current change (%, negative = inhibition) at 10uM"
1,O=C(COc1ccccc1)Nc1nnc(S(=O)(=O)N2CCCCC2)s1,24.9%
2,CCOc1ccccc1NC(=O)NCCN1CCCCC1,8.27%
3,Cc1c(Cl)c([N+](=O)[O-])nn1CCCC(=O)Nc1c(C)n(C)n(-c2ccccc2)c1=O,16.5%
4,Cc1ccccc1NC(=S)NCCc1ccccn1,-0.0106%
5,Cc1c(OCC(=O)NCC2CCC(C(=O)NCCCO)CC2)ccc2c(-c3ccccc3)cc(=O)oc12 (centres unmarked),0.988%
6,Oc1cccc2ccc(/C=C/c3ccccc3Cl)nc12,8.86%
7,CCOc1ccc2oc(C(=O)NNC(=O)c3csc(N4CCOCC4)n3)c(C)c2c1,-9.06%
8,CNC(=S)NNC(=O)c1noc(C)c1C(=O)N1CCN(C(c2ccccc2)c2ccccc2)CC1,36.7%
9,O=C(/C=C/c1cn(-c2ccccc2)nc1-c1ccc2c(c1)OCCO2)NCCO,-51.1%
10,COc1ccc(-n2c(=O)[nH]c3ccccc3c2=O)c(OC)c1,2.33%
11,O=C(COC(=O)C1COc2ccccc2O1)Nc1cccc(Cl)c1 (centres unmarked),5.82%
12,CCc1ccc2c(CN(C)Cc3ccc(OC(F)F)c(OC)c3)cc(=O)oc2c1,-72.5%
13,COc1cccc(/C=N/N2CCN(Cc3ccccc3)CC2)c1O,9.43%
14,CN(CC(=O)Nc1ccccn1)S(=O)(=O)c1ccc(Cl)cc1,-9.34%
15,COC(=O)C1=C(c2cccc(OCc3ccccc3)c2)C[C@@H]2CC[C@H]1N2C(=O)NCc1ccccc1C(F)(F)F,9.54%
16,Cc1cc(N2C(=O)C(O)=C(C(=O)c3cccs3)C2c2cccc(Br)c2)no1 (centres unmarked),6.05%
17,Cc1ccc(C(=O)NCC(=O)OCCOc2cccc(Cl)c2)cc1,-7.72%
18,CNC(=S)N1CCN(C(=O)c2ccco2)CC1,0.461%
19,CCOc1c(C#N)c(C#N)c2nc(C)cc(C)n12,-13.1%
20,COc1ccc2nc(NC(=O)C3CCCN(S(=O)(=O)c4c(C)noc4C)C3)sc2c1 (centres unmarked),5.83%
21,COc1ccc(OC)c(NC(=O)C2C(C(=O)O)C3(Cl)C(Cl)=C(Cl)C2(Cl)C3(Cl)Cl)c1 (centres unmarked),7.73%
22,CCn1cc([N+](=O)[O-])c(C(=O)Nc2nc(-c3ccc(C)c(C)c3)c(C)s2)n1,4.16%

row,Structure (SMILES),"hERG current change (%, negative = inhibition) at 10uM"
1,Cn1nc(C(=O)N2CCN(c3ccc(Cl)cc3)CC2)c2c1-c1ccccc1S(=O)(=O)C2,-51.2%
2,C[C@@H](NC(=O)[C@@H]1Cc2ccccc2CN1)C(=O)NC1CCCC1,8.92%
3,COc1cc(C(=O)N[C@H](C(=O)Nc2nnc(C3CC3)s2)C(C)C)cc(OC)c1OC,-10.1%
4,Cc1ncccc1C(=O)N1CCCC(CNC(=O)c2ccc(-c3ccccc3)cc2)C1 (centres unmarked),-15.5%
5,Cc1ccccc1N,14.8%
6,CCOC(=O)c1c(C)[nH]c(C(=O)N(C)CC(=O)Nc2ccc(OC)cc2)c1C,-4.37%
7,COC(=O)c1[nH]c2cc(OC)c(OC)cc2c1NC(=O)Oc1ccccc1,2.91%
8,CC1C(=O)N2CCCc3cc(S(=O)(=O)Nc4ccccc4C(N)=O)cc1c32 (centres unmarked),0.107%
9,O=C(COC(=O)/C=C/c1ccc(Cl)cc1Cl)Nc1cc(C(F)(F)F)ccc1N1CCOCC1,8.56%
10,Cc1c(Cl)cccc1N(CC(=O)O)S(C)(=O)=O,28.2%
11,COc1ccccc1OCC(=O)NN=C(Cc1ccccc1)Cc1ccccc1,-17.7%
12,COc1ccccc1C(CC(N)=O)c1ccco1 (centres unmarked),10.1%
13,CC(C)CN1C(=O)c2ccc(NC(=O)c3ccccc3F)cc2C1=O,-8.67%
14,CCOc1ccc(NC(=O)COC(=O)Cn2cnnn2)cc1OCC,4.16%
15,Cc1ccc(NC(=S)NCCc2ccc(F)cc2)c(C)c1,-4.63%
16,COc1ccc(CC(=O)NNS(=O)(=O)c2ccccc2[N+](=O)[O-])cc1OC,10.9%
17,CCc1nc2oc3cc(OC)ccc3c(=O)c2c(=O)n1Cc1ccccc1,-11.6%
18,COc1cccc(-c2ccc(SCC(=O)NC3CCCCC3)nn2)c1,-37%
19,CCC(C(=O)Nc1ccccc1-c1ccccc1)c1ccccc1 (centres unmarked),-8.86%
20,O=C1CN(C(=O)NCC(=O)N[C@H](Cc2ccccc2)C(=O)O)c2ccccc2N1,16.8%
